IC50 data for one molecule are collected here from patent US20250289897A1 (Eli Lilly, published 2025).

The assay addresses recombinant human leptin protein (R&D, #398-LP-05M) (human, UniProt P41159). Briefly: competition ELISA, soluble LEPR-Fc titrated against plate-bound LEPR-Fc for 2 nM leptin.
UniProt P41159, sequence (P41159 22-167 limits assumed): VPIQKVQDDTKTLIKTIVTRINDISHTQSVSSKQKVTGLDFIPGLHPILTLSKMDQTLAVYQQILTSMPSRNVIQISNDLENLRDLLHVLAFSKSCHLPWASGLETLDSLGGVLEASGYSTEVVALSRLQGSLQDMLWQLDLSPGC

B1: Recombinant LEPR extracellular domain fused to hIgG1-Fc (human LEPR ECD-TEV-Fc) (Fc fusion)
chain: FNLSYPITPWRFKLSCMPPNSTYDYFLLPAGLSKNTSNSNGHYETAVEPKFNSSGTHFSNLSKTTFHCCFRSEQDRNCSLCADNIEGKTFVSTVNSLVFQQIDANWNIQCWLKGDLKLFICYVESLFKNLFRNYNYKVHLLYVLPEVLEDSPLVPQKGSFQMVHCNCSVHECCECLVPVPTAKLNDTLLMCLKITSGGVIFQSPLMSVQPINMVKPDPPLGLHMEITDDGNLKISWSSPPLVPFPLQYQVKYSENSTTVIREADKIVSATSLLVDSILPGSSYEVQVRGKRLDGPGIWSDWSTPRVFTTQDVIYFPPKILTSVGSNVSFHCIYKKENKIVPSKEIVWWMNLAEKIPQSQYDVVSDHVSKVTFFNLNETKPRGKFTYDAVYCCNEHECHHRYAELYVIDVNINISCETDGYLTKMTCRWSTSTIQSLAESTLQLRYHRSSLYCSDIPSIHPISEPKDCYLQSDGFYECIFQPIFLLSGYTMWIRINHSLGSLDSPPTCVLPDSVVKPLPPSSVKAEITINIGLLKISWEKPVFPENNLQFQIRYGLSGKEVQWKMYEVYDAKSKSVSLPVPDLCAVYAVQVRCKRLDGLGYWSNWSNPAYTVVMDIKVPMRGPEFWRIINGDTMKKEKNVTLLWKPLMKNDSLCSVQRYVINHHTSCNGTWSEDVGNHTKFTFLWTEQAHTVTVLAINSIGASVANFNLTFSWPMSKVNIVQSLSAYPLNSSCVIVSWILSPSDYKLMYFIIEWKNLNEDGEIKWLRISSSVKKYYIHDHFIPIEKYQFSLYPIFMEGVGKPKIINSFTQDDIEKHQSDENLYFQG[human IgG1 Fc with changes and a few adjoining residues not shown]
notes: The entry holds ECD, TEV site, human IgG1 Fc and a His tag in one chain; also called LEPR-Fc; hLEPR-TEV-hIgG1Fc
As for B1, the IC50 (commonly the point on the concentration scale where inhibition reaches its midpoint) is 2.58 µg/mL.
